# Laboratory results as given in PubChem BioAssay (Tox21).
# Where “and” joins values, the source holds several entries; their conditions need not be identical. Equal values may be shown once. Inconclusive means that the source gave no clear call. Such entries were picked first, then a sample of the others. Potencies beside an inconclusive call are fits to weak or partial responses and may not hold up. Calls of active or inactive are those of the source. Unless noted, the call rests on the fitted dose curve; in most records, active means well fitted curve in the direction sought with a large enough effect in the repeat runs; inconclusive means weak or mixed curves; inactive means no such curve, though single readings can be large; an effect the other way counts as inactive or inconclusive.
# Key:
# [1] = target: Peroxisome proliferator-activated receptor gamma (Homo sapiens) (UniProt P37231); assay: qHTS assay to identify small molecule agonists of the peroxisome proliferator-activated receptor gamma (PPARg) signaling pathway (AID 743094; active means well fitted activation curve with a large enough effect in the signal ratio in the repeat runs, not every such curve was filed as active; inconclusive means weak or mixed curves, or effect the other way; inactive means no such curve, though single readings can be large or run the other way; the % refers to the signal ratio; on activation: on the % scale 0 is the no-effect control and ±100 the full control effect); conditions: HEK293H PPARg-UAS-bla, beta-lactamase FRET ratio, 17 h; activation: at 57 µM (top of the series) unless noted
# In short: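 GeneBLAzer PPARg UAS-bla HEK293H cells were plated, rested 5 h, then exposed to compounds for 17 h at 37C. Beta-lactamase activity was read by LiveBLAzer B/G FRET substrate fluorescence after 1 h at room temperature.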
# [2] = target: Peroxisome proliferator-activated receptor gamma (Homo sapiens) (UniProt P37231); assay: qHTS assay to identify small molecule antagonists of the peroxisome proliferator-activated receptor gamma (PPARg) signaling pathway (AID 743191; calls by dose curve; further: nearly all actives have a fitted effect of over 30% in size); conditions: HEK293H PPARg-UAS-bla, beta-lactamase ratio, antagonist, 17 h; ratio activity, negative = inhibition: at 62.6 µM (top of the series) unless noted
# In short: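 GeneBLAzer PPARg UAS-bla HEK293H cells, 5 h post-plating, exposed to compounds 17 h at 37C. LiveBLAzer B/G FRET substrate added for 1 h at room temperature; beta-lactamase reporter read by fluorescence intensity.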
# [3] = qHTS assay to identify small molecule antagonists of the peroxisome proliferator-activated receptor gamma (PPARg) signaling pathway - cell viability counter screen (AID 743194); conditions: PPARg-bla HEK293H viability, CellTiter-Glo luminescence, 17 h, co-treated with 50 nM rosiglitazone; activity change, negative = cytotoxicity: at 62.6 µM (top of the series) unless noted; further: nearly all actives have a fitted effect of over 55% in size; on activity change, negative = cytotoxicity: on the % scale 0 is the no-effect control and ±100 the full control effect
# In short: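 Cytotoxicity counter screen in PPARg-bla HEK293H cells, same wells as reporter assay. Compounds plus 50 nM rosiglitazone (final) for 17 h at 37 C, then viability read by CellTiter-Glo luminescence.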
# [4] = qHTS assay for small molecule agonists of the antioxidant response element (ARE) signaling pathway (AID 743202; active means well fitted activation curve with a large enough effect in the signal ratio in the repeat runs, not every such curve was filed as active; inconclusive means weak or mixed curves, or effect the other way; inactive means no such curve, though single readings can be large or run the other way; the % refers to the signal ratio); conditions: HepG2 ARE-bla reporter, beta-lactamase FRET, 16 h; activation: at 73.3 µM (top of the series) unless noted
# In short: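 Agonist mode reporter screen: HepG2 cells with ARE-controlled beta-lactamase are incubated with test compounds for 16 h at 37 C, and beta-lactamase activity is measured as fluorescence of cleaved B/G FRET substrate.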
# [5] = qHTS assay to identify small molecule agonists of the peroxisome proliferator-activated receptor delta (PPARd) signaling pathway - cell viability counter screen (AID 743211); conditions: PPARd-bla HEK293H viability, CellTiter-Glo luminescence, 17 h; activity change, negative = cytotoxicity: at 62.6 µM (top of the series) unless noted; further: nearly all actives have a fitted effect of over 55% in size
# In short: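 Tox21 library compounds, delivered in DMSO, were incubated 17 h with PPARd-bla HEK293H cells; cytotoxicity was taken from CellTiter-Glo luminescence read 30 min after reagent addition.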
# [6] = target: Peroxisome proliferator-activated receptor delta (Homo sapiens) (UniProt Q03181); assay: qHTS assay to identify small molecule agonists of the peroxisome proliferator-activated receptor delta (PPARd) signaling pathway (AID 743212; calls by dose curve); conditions: HEK293H PPARd-UAS-bla, beta-lactamase FRET ratio, 17 h; activation: at 62.6 µM (top of the series) unless noted
# In short: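 Quantitative high-throughput agonist screen in a HEK293H beta-lactamase reporter line under UAS control. Compounds in DMSO, at 37 C. Fluorescence read after 2 h with FRET substrate at room temperature.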
# [7] = qHTS assay to identify small molecule antagonists of the peroxisome proliferator-activated receptor delta (PPARd) signaling pathway - cell viability counter screen (AID 743213); conditions: PPARd-bla HEK293H viability, CellTiter-Glo luminescence, 17 h; viability change, negative = cytotoxic: at 62 µM (top of the series) unless noted; further: nearly all actives have a fitted effect of over 50% in size
# In short: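 PPARd-bla HEK293H cells (3000/well) got compound plus 300 nM L165041 agonist for 17 h at 37 C. Viability in the same wells came from CellTiter-Glo luminescence after 30 min at room temperature.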
# [8] = target: Peroxisome proliferator-activated receptor delta (Homo sapiens) (UniProt Q03181); assay: qHTS assay to identify small molecule antagonists of the peroxisome proliferator-activated receptor delta (PPARd) signaling pathway (AID 743215; active means well fitted inhibition curve with a large enough effect in the signal ratio in the repeat runs, not every such curve was filed as active; inconclusive means weak or mixed curves, or effect the other way; inactive means no such curve, though single readings can be large or run the other way; the % refers to the signal ratio;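 further: cells stimulated with agonist L165041 at 300 nM final during compound exposure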; on ratio activity, negative = inhibition: on the % scale 0 is the no-effect control and ±100 the full control effect); conditions: HEK293H PPARd-UAS-bla, beta-lactamase FRET ratio, antagonist, 17 h; ratio activity, negative = inhibition: at 62 µM (top of the series) unless noted
# In short: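 PPARd-bla HEK293H cells (UAS-bla reporter) preincubated 5 h, then given compound plus 300 nM final L165041 agonist for 17 h at 37 C. Beta-lactamase activity read by LiveBLAzer B/G FRET substrate fluorescence after 2 h at room temperature.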
# [9] = qHTS assay to identify small molecule agonists of the farnesoid-X-receptor (FXR) signaling pathway - cell viability counter screen (AID 743218); conditions: FXR-bla HEK293T viability, CellTiter-Glo luminescence, 16 h; viability change, negative = cytotoxic: at 62.6 µM (top of the series) unless noted; further: nearly all actives have a fitted effect of over 45% in size
# In short: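 FXR-UAS-bla HEK 293T cells exposed to compounds for 16 h at 37C. Cytotoxicity read in the same wells by CellTiter-Glo luminescence after 30 min at room temperature, following the beta-lactamase FRET read.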
# [10] = qHTS assay to identify small molecule antagonists of the farnesoid-X-receptor (FXR) signaling pathway - cell viability counter screen (AID 743221; active means well fitted cell-killing curve with a large enough effect in the repeat runs, not every such curve was filed as active; inconclusive means weak or mixed curves, or effect the other way; inactive means no such curve, though single readings can be large or run the other way; further: nearly all actives have a fitted effect of over 50% in size); conditions: FXR-bla HEK293T viability, CellTiter-Glo luminescence, 16 h; activity change, negative = cytotoxicity: at 62.6 µM (top of the series) unless noted
# In short: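 Cytotoxicity is taken from ATP luminescence (CellTiter-Glo, 30 min, room temperature) in FXR-bla HEK 293T cells previously incubated 16 h at 37 C with compound and chenodeoxycholic acid at 50 uM final.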
# [11] = target: Vitamin D3 receptor (Homo sapiens) (UniProt P11473); assay: qHTS assay to identify small molecule agonists of the vitamin D receptor (VDR) signaling pathway (AID 743222; calls by dose curve); conditions: HEK293T VDR-UAS-bla, beta-lactamase FRET ratio, 16 h; activation: at 63.5 µM (top of the series) unless noted
# In short: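 VDR-bla cells plated 4 h at 37 C, then exposed to compounds for 16 h at 37 C. Beta-lactamase reporter activity measured by fluorescence after 2 h room-temperature loading with LiveBLAzer B/G FRET substrate.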
# [12] = target: Vitamin D3 receptor (Homo sapiens) (UniProt P11473); assay: qHTS assay to identify small molecule antagonists of the vitamin D receptor (VDR) signaling pathway (AID 743223; active means well fitted inhibition curve with a large enough effect in the signal ratio in the repeat runs, not every such curve was filed as active; inconclusive means weak or mixed curves, or effect the other way; inactive means no such curve, though single readings can be large or run the other way; the % refers to the signal ratio; on activity change, negative = inhibition: on the % scale 0 is the no-effect control and ±100 the full control effect); conditions: VDR-UAS-bla HEK293T, beta-lactamase FRET ratio, 16 h; activity change, negative = inhibition: at 61 µM (top of the series) unless noted
# In short: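 Quantitative HTS in VDR-bla reporter cells stimulated with 1alpha,25-dihydroxyvitamin D3, 3 nM final. Compound exposure 16 h, 37C, 5% CO2. Read-out: beta-lactamase FRET substrate fluorescence, 2 h RT.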
# [13] = qHTS assay to identify small molecule agonists of the vitamin D receptor (VDR) signaling pathway - cell viability counter screen (AID 743224); conditions: VDR-bla HEK293T viability, CellTiter-Glo luminescence, 16 h; activity change, negative = cytotoxicity: at 62.6 µM (top of the series); further: nearly all actives have a fitted effect of over 50% in size
# In short: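 VDR-bla cells, 4 h after plating, exposed to compounds for 16 h at 37C; viability then read in the same wells as CellTiter-Glo luminescence after 30 min at room temperature, following the bla FRET read.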
# [14] = target: Bile acid receptor (Homo sapiens) (UniProt Q96RI1); assay: qHTS assay to identify small molecule antagonists of the farnesoid-X-receptor (FXR) signaling pathway (AID 743217; active means well fitted inhibition curve with a large enough effect in the signal ratio in the repeat runs, not every such curve was filed as active; inconclusive means weak or mixed curves, or effect the other way; inactive means no such curve, though single readings can be large or run the other way; the % refers to the signal ratio); conditions: HEK293T FXR-UAS-bla, beta-lactamase ratio, CDCA-stimulated, 16 h; activity change, negative = inhibition: at 62.6 µM (top of the series) unless noted
# In short: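 FXR-UAS-bla HEK 293T cells (beta-lactamase reporter) given compound plus chenodeoxycholic acid (50 uM final), 16 h at 37C. LiveBLAzer B/G FRET substrate added for 2 h at room temperature; fluorescence read.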
# [15] = target: Bile acid receptor (Homo sapiens) (UniProt Q96RI1); assay: qHTS assay to identify small molecule agonists of the farnesoid-X-receptor (FXR) signaling pathway (AID 743220; active means well fitted activation curve with a large enough effect in the signal ratio in the repeat runs, not every such curve was filed as active; inconclusive means weak or mixed curves, or effect the other way; the % refers to the signal ratio); conditions: HEK293T FXR-UAS-bla, beta-lactamase FRET ratio, 16 h; activation: at 62.6 µM (top of the series) unless noted
# In short: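 Beta-lactamase reporter under UAS control in GeneBLAzer FXR HEK 293T cells (5000/well) measured with LiveBLAzer FRET substrate after 2 h at room temperature. Compound exposure lasted 16 h at 37C.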
# [16] = qHTS assay for small molecule activators of the heat shock response signaling pathway - cell viability counter screen (AID 743209); conditions: HSE-bla HeLa viability, CellTiter-Glo luminescence, 5 h; activity change, negative = cytotoxicity: at 62.6 µM (top of the series) unless noted; further: nearly all actives have a fitted effect of over 50% in size
# In short: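 HSE-bla HeLa cells plated overnight, then exposed to Tox21 compounds (23 nL in DMSO) for 5 h at 37 C. After the bla reporter read, CellTiter-Glo was added in the same wells and luminescence read after 30 min at room temperature.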
# [17] = qHTS assay for small molecule activators of the heat shock response signaling pathway (AID 743210; active means well fitted activation curve with a large enough effect in the signal ratio in the repeat runs, with a control signal flat, not every such curve was filed as active; inconclusive means weak or mixed curves; the % refers to the signal ratio); conditions: HeLa HSE-bla reporter, beta-lactamase ratio, 5 h; activation: at 62.6 µM (top of the series) unless noted
# In short: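 Quantitative high-throughput format using an engineered HeLa line in which heat shock response elements drive beta-lactamase; after 5 h with compound, cells received a B/G FRET substrate and fluorescence was read.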
# Potency means the concentration at half of the fitted maximal effect; tags describe the fitted curve by direction and shape or compound fluorescence and quenching.
# UniProt P11473, sequence (P11473 whole entry, looked up): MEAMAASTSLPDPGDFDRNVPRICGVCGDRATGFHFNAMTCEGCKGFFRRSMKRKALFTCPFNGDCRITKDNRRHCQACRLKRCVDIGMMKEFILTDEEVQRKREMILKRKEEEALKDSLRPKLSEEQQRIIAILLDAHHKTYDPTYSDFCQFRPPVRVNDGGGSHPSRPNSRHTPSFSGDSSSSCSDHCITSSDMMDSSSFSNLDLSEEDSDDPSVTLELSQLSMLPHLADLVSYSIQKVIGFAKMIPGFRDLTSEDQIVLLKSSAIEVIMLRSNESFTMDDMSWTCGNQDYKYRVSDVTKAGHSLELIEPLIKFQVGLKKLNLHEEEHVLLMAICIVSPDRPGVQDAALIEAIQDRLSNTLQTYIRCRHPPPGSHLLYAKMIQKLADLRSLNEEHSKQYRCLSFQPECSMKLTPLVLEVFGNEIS
# UniProt Q03181, sequence (Q03181 whole entry, looked up): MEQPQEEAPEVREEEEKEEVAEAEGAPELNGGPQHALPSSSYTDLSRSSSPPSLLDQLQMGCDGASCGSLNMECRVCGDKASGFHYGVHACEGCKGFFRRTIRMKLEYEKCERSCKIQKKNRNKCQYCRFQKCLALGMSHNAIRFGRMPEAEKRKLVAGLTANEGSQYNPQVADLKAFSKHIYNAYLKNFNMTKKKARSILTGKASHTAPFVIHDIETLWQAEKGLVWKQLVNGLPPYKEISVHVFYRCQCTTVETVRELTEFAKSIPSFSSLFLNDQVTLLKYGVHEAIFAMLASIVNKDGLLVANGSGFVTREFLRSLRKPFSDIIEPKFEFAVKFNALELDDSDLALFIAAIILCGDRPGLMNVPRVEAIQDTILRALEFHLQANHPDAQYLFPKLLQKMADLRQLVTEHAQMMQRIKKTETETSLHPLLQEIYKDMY
# UniProt P37231, sequence (P37231 whole entry, looked up): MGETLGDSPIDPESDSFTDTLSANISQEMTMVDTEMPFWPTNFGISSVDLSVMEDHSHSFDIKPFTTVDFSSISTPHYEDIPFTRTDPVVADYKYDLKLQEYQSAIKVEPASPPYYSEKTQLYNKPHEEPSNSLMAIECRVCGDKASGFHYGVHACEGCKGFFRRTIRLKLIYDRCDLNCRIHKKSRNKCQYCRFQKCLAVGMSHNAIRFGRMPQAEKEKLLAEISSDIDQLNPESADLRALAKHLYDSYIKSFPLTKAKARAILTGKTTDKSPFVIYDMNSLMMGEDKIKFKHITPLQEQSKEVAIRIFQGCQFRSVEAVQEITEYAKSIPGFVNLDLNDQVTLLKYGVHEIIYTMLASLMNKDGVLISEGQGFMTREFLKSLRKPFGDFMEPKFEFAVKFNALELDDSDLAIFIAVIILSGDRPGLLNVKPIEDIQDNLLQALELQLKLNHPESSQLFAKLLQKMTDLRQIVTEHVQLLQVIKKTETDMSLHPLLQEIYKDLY
# UniProt Q96RI1, sequence (Q96RI1 whole entry, looked up): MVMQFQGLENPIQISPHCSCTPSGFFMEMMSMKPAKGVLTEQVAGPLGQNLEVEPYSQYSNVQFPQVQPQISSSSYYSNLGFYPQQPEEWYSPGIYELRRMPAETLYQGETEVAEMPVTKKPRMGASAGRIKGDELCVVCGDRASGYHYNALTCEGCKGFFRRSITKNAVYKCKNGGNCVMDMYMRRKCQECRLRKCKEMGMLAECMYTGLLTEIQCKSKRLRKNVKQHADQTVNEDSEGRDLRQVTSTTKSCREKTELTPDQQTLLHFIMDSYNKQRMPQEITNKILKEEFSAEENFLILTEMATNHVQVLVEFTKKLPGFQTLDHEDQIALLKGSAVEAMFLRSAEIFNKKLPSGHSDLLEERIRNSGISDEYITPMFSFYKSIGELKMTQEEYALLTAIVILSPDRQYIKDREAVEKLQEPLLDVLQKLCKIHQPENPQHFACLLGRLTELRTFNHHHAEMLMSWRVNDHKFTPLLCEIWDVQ
smiles,measurement,setting,value
CN1C[C@H](C(=O)N[C@]2(C)O[C@@]3(O)[C@@H]4CCCN4C(=O)[C@H](Cc4ccccc4)N3C2=O)C[C@@H]2c3cccc4[nH]cc(c34)C[C@H]21,activation,[1],inconclusive: -11.9%
same,Potency,[2],"inconclusive: 29.8 µM [rising, partial curve, poor fit]"
same,Potency,[3],active: 29.8 µM
same,Potency,[4],inconclusive: 33.5 µM
same,Potency,[5],active: 23.7 µM
same,Potency,[6],"inconclusive: 8.41 µM [rising, full curve, poor fit]"
same,Potency,[7],"inconclusive: 1.88 µM [cytotoxic, full curve, poor fit]"
same,"ratio activity, negative = inhibition",[8],inconclusive: -50.5%
same,Potency,[9],active: 26.6 µM
same,Potency,[10],"inconclusive: 29.8 µM [falling, single point]"
same,Potency,[11],inconclusive: 26.6 µM [partial curve]
same,"activity change, negative = inhibition",[12],inconclusive: -49.9%
CC1(CN2CCC(n3c(=O)[nH]c4ccccc43)CC2)OCc2ccccc2-n2cccc21 (stereo unspecified),Potency,[1],inconclusive: 26.8 µM [inhibitor]
same,Potency,[2],inconclusive: 29.8 µM [inhibitor]
same,"activity change, negative = cytotoxicity",[3],inconclusive: -72.2% [cytotoxic]
same,Potency,[4],inconclusive: 13.3 µM
same,Potency,[5],active: 33.5 µM
same,Potency,[6],"inconclusive: 11.9 µM [rising, partial curve]"
same,Potency,[7],"inconclusive: 29.8 µM [cytotoxic, partial curve]"
same,Potency,[9],"inconclusive: 33.5 µM [cytotoxic, single point]"
same,activation,[11],inconclusive: -18.7%
same,Potency,[12],inactive
same,Potency,[13],inconclusive: 33.5 µM [cytotoxic]
CCCCOCCOCCSC#N,activation,[1],inconclusive: -0.0156%
same,Potency,[2],"inconclusive: 14.6 µM [inhibitor, partial curve]"
same,"ratio activity, negative = inhibition",[2],inconclusive: -26.5%
same,activation,[4],inconclusive: -13.3%
Nc1ccc([N+](=O)[O-])cc1O,Potency,[1],"inconclusive: 11 µM [inhibitor, full curve]"
same,Potency,[2],"inconclusive: 0.0219 µM [rising, full curve, poor fit]"
same,Potency,[3],"inconclusive: 0.0871 µM [rising, full curve, poor fit]"
same,Potency,[4],inconclusive: 4.33 µM
same,activation,[6],inconclusive: 4.4% [at 81.1 µM]
same,Potency,[8],"inconclusive: 30.6 µM [fluorescent, single point]"
same,"activity change, negative = inhibition",[14],inconclusive: -30.7% [at 81.1 µM]
same,Potency,[9],"inconclusive: 43.3 µM [cytotoxic, partial curve, poor fit]"
same,Potency,[15],inconclusive: 21.9 µM [fluorescent]
same,Potency,[10],"inconclusive: 3.47 µM [falling, full curve, poor fit]"
same,activation,[11],inconclusive: -11.6%
same,"activity change, negative = inhibition",[12],inconclusive: -23.3%
same,Potency,[13],"inconclusive: 12.3 µM [cytotoxic, full curve]"
S=c1[nH]c2ccccc2s1,Potency,[1],inconclusive: 26.8 µM [activator] and inconclusive: 27.5 µM [activator]
same,"ratio activity, negative = inhibition",[2],inconclusive: -39.8% [at 81.1 µM]
same,Potency,[3],"inconclusive: 4.36 µM [cytotoxic, full curve, poor fit]"
same,Potency,[4],inconclusive: 24.3 µM [activator]
same,Potency,[16],inconclusive: 0.344 µM [cytotoxic]
same,Potency,[17],inconclusive: 11.1 µM
same,Potency,[8],inconclusive: 34.7 µM
same,Potency,[14],inconclusive: 24.5 µM [activator]
same,Potency,[9],"inconclusive: 0.0309 µM [rising, full curve, poor fit]"
same,Potency,[15],inconclusive: 49 µM [activator]
same,Potency,[11],"inconclusive: 43.6 µM [rising, partial curve, poor fit]"
same,Potency,[12],inconclusive: 54.9 µM [activator]
same,Potency,[13],"inconclusive: 21.9 µM [cytotoxic, full curve]"
CCCCCCCCCC=O,activation,[1],inconclusive: 11%
same,Potency,[2],"inconclusive: 21.9 µM [rising, single point]"
same,Potency,[3],inactive
same,activation,[4],inconclusive: -3.76%
S=C1NC=NC2N=CNC12 (stereo unspecified),Potency,[1],"inconclusive: 6.92 µM [rising, full curve, poor fit]"
same,Potency,[2],"inconclusive: 17.4 µM [inhibitor, partial curve]"
same,Potency,[3],"inconclusive: 2.46 µM [cytotoxic, full curve]"
same,Potency,[4],active: 4.86 µM
same,Potency,[5],"inconclusive: 5.5 µM [cytotoxic, full curve]"
same,Potency,[7],"inconclusive: 12.3 µM [cytotoxic, partial curve, poor fit]"
same,Potency,[14],"inconclusive: 30.9 µM [inhibitor, partial curve]"
same,Potency,[9],active: 11 µM
same,Potency,[10],"inconclusive: 5.5 µM [falling, full curve]"
